# From the supplement of paper PMC11417369
# ± gives the standard deviation of the averaged measurements. The list shows a part of the results.
# Test system: PfAP2-I AP2 domain 3 (GST-tagged)
# Test: gcPBM binding intensity (ln(normalized median fluorescence intensity)); higher = stronger DNA binding
# Outline: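 In this array assay, P. falciparum DNA-binding domains with a GST tag, expressed in E. coli, were applied for 1 h to primer-extended double-stranded 36-bp intergenic genomic probes and negative controls on an Agilent 4 × 180k array. Bound protein was visualised with Alexa488 anti-GST antibody at 488 nm. Binding intensity is the highest Masliner-normalised natural-log median intensity across replicate spots of either probe orientation.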
row,Sequence,gcPBM binding intensity (ln)
1,AGATTTCAAGGTAATAGATCAATTTTAATTTGTAAA [CACACA_negctrl_site514],7.18 ± 0.4
2,ATGAACATGTGACAATGTACATTTATATCTTAAGAA [XGTACX_site4960],7.61 ± 0.51
3,ATAATATATATATATATGTATGTATATATGTATGTA [GTGCAC_negctrl_site575],7.64 ± 0.38
4,TACACCCAGAAATGCACACACATATATATATATATA [CACACA_site5289],9.61 ± 0.26
5,TATATATATATAATAGCATGCTATATTATATATATA [TGCATGCA_site886],8.98 ± 0.35
6,TATTCTTATTATTACACACACAATTATATTTACCCC [CACACA_site6381],8.29 ± 0.32
7,TTAACATAAATTGTGTCATTTTTTTTTTTTTTTTTA [CACACA_negctrl_site1221],7.21 ± 0.56
8,TATTTTTTAATTGTTTCACACATTATTTTTTACATA [CACACA_site6078],7.72 ± 0.54
9,TTTTATATAAATATCACACACACACGCATGTTTTAA [CACACA_site6187],7.86 ± 0.66
10,TACAATATACCTACTTGTACACAAAATAAAAGTAGT [XGTACX_site6029],7.86 ± 0.45
11,TACACACCTAACTATGCATGCATCAATATAGTGGAT [TGCATGCA_site443],7.76 ± 0.75
12,TATTCATGCATATACACACACATATATATATATTTT [CACACA_site3955],8.45 ± 0.58
13,AATGAAAAATTGTAATGTACATAAATAAATAAATAA [XGTACX_site4048],8.5 ± 0.96
14,ATCATAATTTATTATACACACAATACGTGACCTATT [CACACA_site6977],8.06 ± 0.47
15,AAAAAAAAATTAAACATACACACGTTACTATTTTTA [CACACA_site1687],7.37 ± 0.53
16,TATATGTGATAACACGCACACAAATGTATATAATTT [CACACA_site2593],8.1 ± 0.28
17,ATAAAATAAAAATTCTGTACAGAATTAAAAAAATAT [XGTACX_site6961],7.93 ± 0.71
18,AAAAAAAAAAAACATACACACATTGAACTTTTATAT [CACACA_site3250],7.59 ± 0.58
19,AAAAAAAGTAAAAAGTGTACTTAATATATATATATA [XGTACX_site838],9.18 ± 0.085
20,TGTAGCATTTAATTCACACATAAAAAATGTATCCAT [CACACA_site4986],7.62 ± 0.3
21,ATATATATATTTAAGGTGCGATTTTGTTATATTTAA,9.09 ± 0.24
22,TTTTTATTAGGACATGCATACAAAATTAAAAAAAAT [TGCATGCA_site258],8.11 ± 0.57

row,Sequence,gcPBM binding intensity (ln)
1,CTTATTTTATGTTATACACACAAAGAAAAAAAATAA [CACACA_site2165],8.1 ± 0.47
2,TTATTAAAATATTAAAGTACAAAAAAAATAAATAAA [XGTACX_site6507],7.84 ± 0.45
3,TTATGTATATTATAAATTAATACATTTAAATTAATA [CACACA_negctrl_site34],7.24 ± 0.26
4,GTATATAATTTATGTGCACACACTCCTATTTTTAGC [CACACA_site49],10.2 ± 0.19
5,AATTATATTAATATATAATAAAATAGGATGTTATTT [XGTACX_negctrl_site309],7.86 ± 0.42
6,TATTAATTTATTTGTTGTACGTAAATATGCTTGTTT [XGTACX_site6591],7.83 ± 0.32
7,AAAAAAAAAAAAAATTGTACCCAAATATTTTTGTAG [XGTACX_site8303],7.92 ± 0.64
8,GACATATATAGCAATCGTACATATATTATAAAAGGT [XGTACX_site6891],8.19 ± 0.61
9,TTTAATCAATGATTTAATGAAAAAAGCAAAAAAAAA [GTGCAC_negctrl_site213],7.79 ± 0.87
10,CGTTTGGTACACGTAGTGTTTTCGTTTGAATGTACC [GTGCAC_negctrl_site201],7.91 ± 0.57
11,TTTAATTTTCCCTTCACACATAATATATATCTGTAT [CACACA_site5370],7.93 ± 0.59
12,AAAAGGAACAGACACACACACATATATAAATATGTA [CACACA_site7656],7.54 ± 0.49
13,TAACACTTTTTTTTTCGTACATATATTATATATATA [XGTACX_site5470],8.73 ± 0.52
14,AAATAGACATAAAAAGGTACACAAATTGTGTATTAA [XGTACX_site527],7.86 ± 0.41
15,TTTTTTTATATTATACGCACTAATATATATATATAT [XGTACX_negctrl_site40],9.79 ± 0.36
16,TTACTTGTTTATTTTTTTTTTTTTTTTTTTTTTGTT [TGCATGCA_negctrl_site103],7.17 ± 0.27
17,TAATGGAGAAAATAATGTACTTAGATATTTGTTCTA [XGTACX_site6312],7.38 ± 0.45
18,TTTAAATATTTTATAGCATGCTACCAATATGTATAT [TGCATGCA_site291],7.79 ± 0.49
19,AAGAACAAACAAAATAGTACAATATATATATATATA [XGTACX_site4258],9.7 ± 0.58
20,CATATATAGATATATACACACATATAGATTTTCTTT [CACACA_site6797],7.54 ± 0.42
21,AACTATAATTAAAGGATGCACTTGAAGGCATTTCAA [GTGCAC_site9689],7.85 ± 0.44
22,TATTCATAACAATGATGTACATATATTTTTTTTTTC [XGTACX_site5619],7.54 ± 0.47

row,Sequence,gcPBM binding intensity (ln)
1,AAAAAAAAAAAAAAAAAAAAAAAAAAAGATTATGAG [CACACA_negctrl_site1088],9.76 ± 0.071
2,TATAAAATACTGTATCGATGGGGGAGGGCGCAGGGG [TGCATGCA_negctrl_site250],9.87 ± 0.028
3,TCAAATGTATATAATTGTACTTATCCTTTTCATTTT [XGTACX_site4879],7.71 ± 0.63
4,AAAAATTAGAAACACACACACATATATATATATATT [CACACA_site1042],8.02 ± 0.25
5,TTTTAAGTTTTTGAATGTACGTAATTTGTAAATTCT [XGTACX_site2448],7.71 ± 0.38
6,ACATATATATTTATATGTACATATATTTATATATAT [XGTACX_site7469],8.03 ± 0.37
7,AAAAATATTTAAAATACACACATATCTATAATATAT [CACACA_site7032],7.51 ± 0.47
8,GTGGTATAAATTTTATGTACTTAATAACTCATTAAT [XGTACX_site5555],7.79 ± 0.28
9,AAATCCATATAGGATTGTACATATATTATATATATA [XGTACX_site8818],8.46 ± 0.39
10,CAAAATGTTAAAGATACACACCTAACAAACACAAAA [CACACA_site4685],7.99 ± 0.47
11,AATTCTTTACTATTCACACATATAAATATTCACTTT [CACACA_site4886],8 ± 0.7
12,AAAAAAAAAAAACACACACACACAAATACATACACA [CACACA_site706],8.04 ± 0.16
13,TTTAATTTATATAATGATATTAAGTTGGTTATTAGG [CACACA_negctrl_site329],7.4 ± 0.44
14,ATATAGTTTCACATGTGTACATAAAAATACACTTGT [XGTACX_site3339],7.93 ± 0.26
15,ACAAAAATGAGATGGTGTACGCACAAATAAATAATA [XGTACX_site5221],8.74 ± 0.45
16,AAATATTTATATGTTACACACTGTTTATAATTTTCT [CACACA_site4868],7.5 ± 0.69
17,CAATGTATTTAGAATACATGCATATTTTCATAATGT [TGCATGCA_site221],7.55 ± 0.57
18,AATTATGCACAAATCACACATATAAAATAAAAAGTG [CACACA_site4474],10.3 ± 0.79
19,CTCATCCTTACATACACACACATATATTTATTTATA [CACACA_site6202],8.21 ± 0.33
20,AAATTATAGAATCATTGTACTTTTTTTTTTTTTTTT [XGTACX_site1280],8.69 ± 0.38
21,ATAATAACTTGTAAGGTGCATTTTATGTTTTCTTAA,10.1 ± 0.41
22,TATGCTTCAAAATTGTGTACATATATAATATATTAT [XGTACX_site6760],7.95 ± 0.38

row,Sequence,gcPBM binding intensity (ln)
1,TTAATAATTATAACATGTACATACACTAAATTTTTT [XGTACX_site8953],8.03 ± 0.48
2,CAAATATATATTTATTGTACATATTGTTTATATGGT [XGTACX_site5246],7.63 ± 0.4
3,CATCCAAAAATATTATGTACTAAATTTGGATGTATT [XGTACX_site3954],7.43 ± 0.52
4,TATAAAATTATGTGTACACAAATATAACTTTTCTTT [CACACA_site5554],8.24 ± 0.52
5,AAAATATTTCTTCTTTGTACTTATATATATTTAATT [XGTACX_site5446],7.95 ± 0.71
6,TATTCATATTCCAAGTGTACACATAAATCCCTAATA [XGTACX_site4131],7.96 ± 0.43
7,TACTTACCTATAATAACACACAAGAAAAAAATAAAA [CACACA_site6616],7.93 ± 0.61
8,AAATAATATCATAAATGTACATATATCATATTATTA [XGTACX_site5372],7.55 ± 0.3
9,AACACCAAACTAAATGTACACACATACATAAATATA [CACACA_site8298],8.04 ± 0.25
10,AATATAAACACAAACACACACATATATATATATATA [CACACA_site4307],9.49 ± 0.45
11,TTATTTAAACAAATCACACACAAATATAAATACATA [CACACA_site5158],7.68 ± 0.3
12,AGGTTGAATATATATTTGTGATTATATTATTTTATT [CACACA_negctrl_site778],7.46 ± 0.53
13,TATATATATATATAATGTACAAACTCCTTTATATAT [XGTACX_site4545],9.2 ± 0.52
14,CCATGTCAAACATTTGCACACAAAAAAATAAAAATT [CACACA_site4546],9.46 ± 0.14
15,GTTTTTTTTATATATTGTACAAATAATATATTATAT [XGTACX_site29],8.28 ± 0.67
16,TCATTCAAAAAAAATCAACACACAGTTACATAGCTC [CACACA_site8700],7.71 ± 0.73
17,TTTTAAAACTACATTGGTACACAATAAAAAAAAAAA [XGTACX_site2793],8.04 ± 0.71
18,TTTTAAAAAAAAAAAATAAATAAATAAGATATTATC [CACACA_negctrl_site1791],7.34 ± 0.57
19,TCATATATATTATACACACACATATATAAATATATA [CACACA_site967],7.87 ± 0.54
20,AAAAAAAAAAAAAAAGCACACATATAAATATGAATA [CACACA_site8391],8.86 ± 0.35
21,ATTCTAAATATGTATATACACACTTTTAATATTCAT [CACACA_site4118],7.92 ± 0.6
22,TTTTTTATTTAAAGTAGTACTTTTTAGAAAACAAAA [XGTACX_site6759],7.68 ± 0.29
